Laboratory results from PubChem BioAssay AID463173 (ICCB-Longwood Screening Facility, Harvard Medical School, 2010).
Out of some 52,000 compounds screened, about 4,300 (8.3%) were called active. Rule as the data show it: active = survival mostly below about 52% (no sharp cut-off); inactive = mostly above about 56%. The list shows a part of the results.

Each compound was assayed on DeltatarO mutant (assay: growth inhibition of S. aureus wild type versus tarO mutant, primary screen, teichoic acid synthesis inhibitors, RN4220, OD600 (AID 463173)). Conditions: OD600, 18 h, active compounds read low, screened at 18.75 µg/mL (by protocol).

Row | Structure (SMILES) | survival
1 | Cc1ccc2oc3c(c(=O)c2c1)C1(C(=O)N(C)c2ccccc21)N(CCCO)C3=O (stereo not drawn) | active: 51%
2 | O=C(CCS(=O)(=O)c1cccc2nsnc12)Nc1ccc(F)cc1 | inactive: 53%
3 | Cc1ccc(Cl)cc1NC(=O)C(=O)NCC(c1cccnc1)N1CCc2ccccc21 (stereo not drawn) | inactive: 51%
4 | COc1ccc2oc(-c3ccc(C)c(NC(=O)COc4cc(C)cc(C)c4)c3)nc2c1 | active: 43%
5 | CCc1ccc(-n2c(=O)c3c4c(sc3n(CC(=O)c3ccc(Cl)cc3)c2=O)CCC4)cc1 | inactive: 142%
6 | COc1ccc(/C=C\C(=O)NC2CC(=O)N(c3ccccc3)C2)cc1OC (stereo not drawn) | inactive: 130%
7 | COc1cc(NC(=O)c2nc(-c3ccncc3)no2)cc(OC)c1OC | inactive: 107%
8 | Cc1ccc(NC(=O)C(Cc2c[nH]c3ccccc23)NC(=O)OCC(C)C)cc1 (stereo not drawn) | inactive: 56%
9 | Cc1ccc(CN(C(=O)COc2c(C)cccc2C)C2CCS(=O)(=O)C2)o1 (stereo not drawn) | inactive: 110%
10 | COC(=O)c1nc2n(n1)C(c1cc(OC)ccc1OC)C(C(=O)Nc1ccc(C)cc1C)=C(C)N2 (stereo not drawn) | inactive: 79%
11 | CCOC(=O)Cc1cc(=O)[nH]c(/N=C(\N)Nc2ccc3ccccc3c2)n1 | inactive: 98%
12 | Cc1ccc(Cl)cc1N1CCN(CCNC(=O)Nc2ccccc2Cl)CC1 | inactive: 77%
13 | CC(C)(C)C(=O)NCCc1csc2nc(-c3ccc(F)cc3)nn12 | inactive: 90%
14 | CCS(=O)(=O)N1CCN(C2CCCCCCC2)CC1 | inactive: 67%
15 | COc1cc2[nH]c(=O)n(CCCC(=O)N3CCN(c4cccc(C(F)(F)F)c4)CC3)c(=O)c2cc1OC | inactive: 56%
16 | COc1ccc(C(=O)CSc2c(C(C)C)cnc3c2c(=O)n(C)c(=O)n3C)cc1 | inactive: 95%
17 | CC(C(=O)NCC1CCCO1)N(C(=O)c1snc(C(N)=O)c1N)c1cccc(F)c1 (stereo not drawn) | inactive: 67%
18 | Cc1ccc(NC(=O)C2CCN(c3cc(C)nc4c(-c5ccc(Cl)cc5)c(C)nn34)CC2)c(C)c1 | inactive: 91%
19 | COc1ccccc1N1CCN(C(=O)CN2C(=O)COc3ccc(S(=O)(=O)N4CCC(C)CC4)cc32)CC1 | inactive: 77%
20 | Cc1ccn2c(=O)cc(COc3ccc(NC(=O)c4ccccc4F)cc3)nc2c1 | inactive: 100%
21 | Cn1ncc2nc(SCC(=O)Nc3ccc(Br)cc3F)n(Cc3ccccc3)c(=O)c21 | active: 29%
22 | CCOc1ccc(NC(=O)CSc2nc3c(oc4ccccc43)c(=O)n2CCOC)cc1 | inactive: 74%

Row | Structure (SMILES) | survival
23 | Cc1ccc(-n2nnc(C(=O)Nc3cc(F)ccc3F)c2C)cc1F | inactive: 108%
24 | COc1ccccc1NC(=O)c1sc2nc3c(cc2c1N)CCCCCC3 | inactive: 43%
25 | O=C(c1ccccc1)N1c2ncnn2C2(CCCCC2)[C@@H]2CCCC[C@@H]21 | inactive: 83%
26 | Cc1ccccc1C(=O)Nc1cc(-c2ccc(Cl)cc2)nn1-c1ccccc1 | inactive: 94%
27 | COC(=O)CSc1nc(N)c(C#N)c(-c2ccccc2)c1C#N | inactive: 86%
28 | Cc1ccc2c(c1)C(c1ccc(F)cc1)N(C(=O)c1ccc(OC(C)C)cc1)CC(=O)N2 (stereo not drawn) | inactive: 140%
29 | Cc1nn(-c2ccc(N3CCOCC3)nn2)c(C)c1CCC(=O)NCc1ccc(F)cc1 | inactive: 107%
30 | Cc1cccc(NC(=O)c2sc3nc(N4CCOCC4)c4c(c3c2N)CC(C)(C)OC4)c1 | inactive: 91%
31 | COc1ccc(NC(=O)Cn2ncc3c2-c2ccccc2OC3)cc1Cl | inactive: 59%
32 | O=C(CSc1nc2c([nH]c3ccccc32)c(=O)n1-c1ccccc1)Nc1ccc2c(c1)OCCO2 | inactive: 94%
33 | COc1ccccc1C(=O)Nc1ccc(OCc2cc(=O)n3ccsc3n2)cc1 | inactive: 114%
34 | CCN(CCCNC(=O)c1cc2c(Cl)nc3ccccc3c2s1)Cc1ccccc1 | inactive: 94%
35 | Cc1ccc(C)c2sc(N3CCN(C(=O)C(C)(C)C)CC3)nc12 | inactive: 88%
36 | CCOc1ccc(CCNC(=O)c2ccc(-n3c(C)cc4c3CCC(C)C4)cc2)cc1OCC (stereo not drawn) | inactive: 82%
37 | CC1=C(C(=O)Nc2ccc(C)cc2Cl)C2(CCCCCC2)OC1=O | inactive: 89%
38 | CCN(CC)c1sc(S(=O)(=O)c2ccccc2)nc1S(=O)(=O)c1ccc(C)cc1 | inactive: 67%
39 | CCC(=O)c1cc2c(cc1NC(=O)c1ccccc1F)OCCO2 | inactive: 68%
40 | COc1cccc2cc(-c3nnc(Nc4c(F)cccc4F)s3)c(=O)oc12 | inactive: 95%
41 | O=C(/C=C/c1ccco1)CC1(O)C(=O)Nc2ccccc21 (stereo not drawn) | inactive: 84%
42 | CSc1ncc(C(=O)N2CCN(c3cc(Cl)ccc3C)CC2)c(C)n1 | inactive: 57%
43 | CCCN(C(=O)CCc1nc(-c2ccc(OC)cc2)no1)c1ccccc1F | active: 3%
44 | COc1cc(-c2nc(Cn3nnc(C(=O)Nc4ccc(C)cc4C)c3C)c(C)o2)cc(OC)c1OC | inactive: 61%

Row | Structure (SMILES) | survival
45 | Cc1oc(-c2ccccc2F)nc1CS(=O)(=O)CC(=O)NCCc1ccc(Cl)cc1 | inactive: 109%
46 | COc1ccc(N2CCN(c3oc(-c4ccc(COc5cccc(C)c5)o4)nc3C#N)CC2)cc1 | inactive: 102%
47 | COc1ccc(CN2CCC(C(=O)NC3CCCC3)CC2)cc1 | inactive: 100%
48 | Cc1ccc(NC(=O)CN(C)S(=O)(=O)c2ccc3[nH]c4c(c3c2)CCCC4)c(Cl)c1 | inactive: 95%
49 | COc1ccc(CC(=O)NCCc2csc3nc(-c4ccccc4F)nn23)cc1 | inactive: 61%
50 | COc1cccc(-n2c(-c3cccc(F)c3)nc3c(cnn3-c3ccc(C)cc3)c2=O)c1 | inactive: 76%
51 | Cc1c(-c2ccc(Cl)cc2)c(=O)oc2ccc(OC(=O)N3CCOCC3)cc12 | inactive: 87%
52 | COc1ccccc1CNC(=O)CC(c1ccc(OC)c(OC)c1)N1Cc2ccccc2C1=O (stereo not drawn) | inactive: 83%
53 | CCc1cnc2c(c1SCC(=O)c1ccc(OC)cc1)c(=O)n(C)c(=O)n2C | inactive: 72%
54 | Cc1ccccc1CN1C(=O)c2ccccc2Sc2ccc(C(=O)NC3CCCC3)cc21 | inactive: 102%
55 | O=S(=O)(NCc1ccc(Cl)cc1)c1ccc(-c2cnc(C3CC3)o2)cc1 | inactive: 85%
56 | COc1ccc(OC)c(/C=C/C(=O)Nc2ccc(C(=O)OCCC(C)C)cc2)c1 | active: 33%
57 | COCCn1nnnc1C(c1cc2c(C)ccc(C)c2[nH]c1=O)N1CCCc2ccccc21 (stereo not drawn) | inactive: 99%
58 | Cc1ccc(Cl)cc1-n1ncc2c(N3CCCCCC3)ncnc21 | inactive: 108%
59 | CCCCN(CCCC)C(=O)C1CCN(S(=O)(=O)c2cccc3nsnc23)CC1 | inactive: 116%
60 | CCN(CC)CCNC(=O)Nc1ccc2c(c1)N(Cc1ccccc1)C(=O)c1ccccc1S2 | inactive: 131%
61 | CCOC(=O)c1cn(CC2CC2)c2cc(F)c(F)cc2c1=O | inactive: 101%
62 | COc1ccc(N2CC(NC(=O)c3ccc(S(=O)(=O)N4CCOCC4)cc3)CC2=O)cc1OC (stereo not drawn) | inactive: 67%
63 | CCCCOc1cccc(C(=O)N(Cc2cccs2)c2ccc(OC)cc2)c1 | inactive: 75%
64 | CCCCNC(=O)C1CCC(CNS(=O)(=O)c2ccc(Cl)cc2)CC1 (stereo not drawn) | inactive: 91%
65 | CCc1ccc(S(=O)(=O)N(C(=O)Oc2ccccc2)c2ccc3oc(C)c(C(=O)OC)c3c2)cc1 | inactive: 63%
66 | CCCCn1c(SCC(=O)NCc2ccco2)nc2ccccc2c1=O | inactive: 90%

Row | Structure (SMILES) | survival
67 | CC(C)(C)c1ccc(-c2nc(SCC(=O)Nc3ccc(Cl)cc3)[nH]c(=O)c2C#N)cc1 | active: -2%
68 | CC(=O)NCCn1c(SCC(=O)Nc2ccc(C)cc2)nc2ccccc2c1=O | inactive: 92%
69 | CC(C)N(Cc1ccc(C(=O)O)o1)C(C)C | inactive: 83%
70 | N=c1n(CCN2CCCCC2)c2ccccc2n1CC(=O)c1ccc(Br)s1 | inactive: 114%
71 | COc1ccc(NC(=O)c2cc(CN3CCCC3)on2)cc1Cl | inactive: 96%
72 | Cc1ccc(C(=O)Nc2nnc(S(=O)(=O)N3CCc4ccccc43)s2)cc1 | active: 26%
73 | Cc1ccccc1C(=O)Oc1c(Sc2ccccc2)c(C)nn1C(C)(C)C | active: 21%
74 | O=C(NCc1ccc(F)cc1)c1cc(-c2ccc(Cl)cc2)n[nH]1 | inactive: 85%
75 | O=C(Nc1cccnc1)c1cc(-c2cccc(Cl)c2)on1 | inactive: 115%
76 | CN(C)c1ccc(-c2nc3ccccc3s2)cc1 | inactive: 78%
77 | CCC(C)NC(=O)CCSc1nc(-c2ccc(OC)cc2)cc(C(F)(F)F)n1 (stereo not drawn) | inactive: 122%
78 | CCc1ccc(S(=O)(=O)c2nnn3c2nc(Nc2ccc(F)cc2)c2cc(Cl)ccc23)cc1 | inactive: 85%
79 | O=C(O)c1cccc(Nc2ncnc3scc(-c4ccccc4)c23)c1 | inactive: 56%
80 | O=C(Nc1cccc(Br)c1)N1CCC(CN2CCCCCC2)CC1 | inactive: 89%
81 | COc1cccc(CNC(=O)CN(c2ccc(C(C)C)cc2)S(=O)(=O)c2c(C)noc2C)c1 | inactive: 55%
82 | Cc1cc(C)cc(Oc2c(C(F)(F)F)oc3cc(OCC(=O)NC4CCCCC4)ccc3c2=O)c1 | inactive: 110%
83 | O=C(NN1C(=O)c2ccccc2C1=O)C1CC2CCC1C2 (stereo not drawn) | inactive: 74%
84 | CCOC(=O)c1cc(-c2ccccc2)n(-c2cccc(C(=O)Nc3cc(OC)cc(OC)c3)c2)c1C | inactive: 81%
85 | CCOC(=O)c1sc(NC(=O)c2cc3nc(-c4ccccc4)cc(C(F)(F)F)n3n2)c(C(=O)OCC)c1C | inactive: 60%
86 | Cn1c(=O)oc2cc(S(=O)(=O)N3CCC(C(=O)Nc4ccc(F)c(Cl)c4)CC3)ccc21 | inactive: 68%
87 | CCOc1ccc(NC(=O)c2cnc(Nc3ccccc3OC)c3ccccc23)cc1 | inactive: 50%
88 | COc1ccc(CCNC(=O)Cn2ncc3c(=O)oc4ccccc4c32)c(OC)c1 | inactive: 89%
